Among the data in publication PMC5019376 are binding values, retold here.

For assay [1], the target named is IAA3, BiFC fusion (Arabidopsis) (UniProt Q38822). As to the kind of experiment: split reporter; BiFC after transient expression in Nicotiana benthamiana leaves, confocal imaging; some TIR1-TIR1 samples with co-expressed Myc:ASK1 and 100 uM CHX.
Assay [2] has as its target T1, TIR1 (wild type, BiFC fusion) (Arabidopsis) (UniProt Q570C0).
T1 sequence: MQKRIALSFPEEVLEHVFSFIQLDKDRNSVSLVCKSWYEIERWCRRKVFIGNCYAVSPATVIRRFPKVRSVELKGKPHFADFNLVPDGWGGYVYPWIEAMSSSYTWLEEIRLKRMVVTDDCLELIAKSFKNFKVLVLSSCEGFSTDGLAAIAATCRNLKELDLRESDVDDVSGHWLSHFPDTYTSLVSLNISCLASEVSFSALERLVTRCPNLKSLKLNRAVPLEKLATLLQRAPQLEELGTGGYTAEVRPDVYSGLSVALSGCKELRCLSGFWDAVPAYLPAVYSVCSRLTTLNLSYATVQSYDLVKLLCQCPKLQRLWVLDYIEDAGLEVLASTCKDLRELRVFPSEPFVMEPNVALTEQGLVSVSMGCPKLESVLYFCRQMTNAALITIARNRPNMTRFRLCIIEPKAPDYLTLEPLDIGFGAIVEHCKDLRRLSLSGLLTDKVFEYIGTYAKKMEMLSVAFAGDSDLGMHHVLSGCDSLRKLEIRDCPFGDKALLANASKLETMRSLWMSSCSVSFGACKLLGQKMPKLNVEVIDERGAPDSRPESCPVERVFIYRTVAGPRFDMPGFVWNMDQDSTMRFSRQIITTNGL
The description is as above.

Assay [3] deals with TIR1 fusion proteins expressed from the native promoter in Arabidopsis (TIR1-GUS and TIR1-VENUS) (Arabidopsis) (UniProt Q570C0). The assay can be described thus: co-IP; extracts of double transgenic pTIR1:TIR1-GUS and pTIR1:gTIR1-VENUS Arabidopsis plants; precipitated with anti-GUS antibody, blots with anti-GUS and anti-GFP.
The target in assay [4] is T2, TIR1 (wild type, epitope-tagged, expressed in Nicotiana) (Arabidopsis) (UniProt Q570C0).
T2 sequence: T1 sequence
The assay can be described thus: co-IP; HA:TIR1 and Myc:TIR1 co-injected in Nicotiana leaves; extracts precipitated with anti-Myc antibody, blots with anti-Myc and anti-HA.

Assay [5] concerns the target TIR1 (wild type, yeast two-hybrid fusion) (Arabidopsis) (UniProt Q570C0). The assay can be described thus: two-hybrid; yeast MaV203, ProQuest vectors pDEST32 (DB) and pDEST22 (AD); growth without histidine with 3-AT; TIR1-TIR1 also with co-expressed Aux/IAA3 and 25 uM indole-3-acetic acid.
Assay [6] concerns the target COI1, BiFC fusion (Arabidopsis) (UniProt O04197). As to the kind of experiment: split reporter; BiFC after transient expression in Nicotiana benthamiana leaves, confocal imaging; some TIR1-TIR1 samples with co-expressed Myc:ASK1 and 100 uM CHX.
The target of assay [7] is COI1, yeast two-hybrid fusion (Arabidopsis) (UniProt O04197). The assay can be described thus: two-hybrid; yeast MaV203, ProQuest vectors pDEST32 (DB) and pDEST22 (AD); growth without histidine with 3-AT; TIR1-TIR1 also with co-expressed Aux/IAA3 and 25 uM indole-3-acetic acid.

Substitutions are numbered along the chain they refer to. Names and notes keep the numbering of the source. Results are given in words; binding and its absence hold for the method and conditions named. For some assays here: Binding seen in cells or lysates may run through a third protein. Some results given as binding are weak or reduced against the parent protein; the word gives no strength. Tags and fused reporters may be left off the sequences shown.

B1: IAA3, BiFC fusion (protein, UniProt Q38822 1-189)
chain: MDEFVNLKETELRLGLPGTDNVCEAKERVSCCNNNNKRVLSTDTEKEIESSSRKTETSPPRKAQIVGWPPVRSYRKNNIQSKKNESEHEGQGIYVKVSMDGAPYLRKIDLSCYKGYSELLKALEVMFKFSVGEYFERDGYKGSDFVPTYEDKDGDWMLIGDVPWEMFICTCKRLRIMKGSEAKGLGCGV
As to B1, the binding result in assay [1] is given as “binds”.

B2: L439A-TIR1 (BiFC fusion) (protein, UniProt Q570C0 1-594)
chain: T1 sequence with L439A
On to B2, for which, in assay [2], the binding result was “binds”.

B3: G147A TIR1 (BiFC fusion) (protein, UniProt Q570C0 1-594)
chain: T1 sequence with G147A
With B3, the binding result in assay [2] was “no binding”.

B4: R403A-TIR1 (BiFC fusion) (protein, UniProt Q570C0 1-594)
chain: T1 sequence with R403A
In the case of B4, the binding result in assay [2] is “binds”.

B5: L148A TIR1 (BiFC fusion) (protein, UniProt Q570C0 1-594)
chain: T1 sequence with L148A
Turning to B5, the binding entry in assay [2] is “binds”.

B6: F143A-TIR1 (BiFC fusion) (protein, UniProt Q570C0 1-594)
chain: T1 sequence with F143A
As to B6, in assay [2], the binding entry was “no binding”.

B7: TIR1 fusion proteins expressed from the native promoter in Arabidopsis (TIR1-GUS and TIR1-VENUS) (protein, UniProt Q570C0 1-594)
chain: T1 sequence
Take B7: the binding entry in assay [3] is reported as “binds”.

B8: S438A/L439A-TIR1 (BiFC fusion) (protein, UniProt Q570C0 1-594)
chain: T1 sequence with S438A, L439A
Turning to B8, the binding result in assay [2] is given as “binds”.

B9: TIR1 (wild type, epitope-tagged, expressed in Nicotiana) (protein, UniProt Q570C0 1-594)
chain: T1 sequence
On to B9, for which, in assay [4], the binding result is recorded as “binds”.

B10: V33E-TIR1 (BiFC fusion) (protein, UniProt Q570C0 1-594)
chain: T1 sequence with V33E
B10: in assay [2], the binding entry is given as “no binding”.

B11: TIR1 (wild type, yeast two-hybrid fusion) (protein, UniProt Q570C0 1-594)
chain: T1 sequence
Turning to B11, the binding entry in assay [5] was “binds”.

B12: S462E/A464E-TIR1 (BiFC fusion) (protein, UniProt Q570C0 1-594)
chain: T1 sequence with S462E, A464E
Regarding B12, the binding result in assay [2] is “binds”.

B13: V117A TIR1 (BiFC fusion) (protein, UniProt Q570C0 1-594)
chain: T1 sequence with V117A
As to B13, in assay [2], the binding entry was “no binding”.

B14: V33A/K35A-TIR1 (BiFC fusion) (protein, UniProt Q570C0 1-594)
chain: T1 sequence with V33A, K35A
For B14, the binding result in assay [2] was “binds”.

B15: I151A TIR1 (BiFC fusion) (protein, UniProt Q570C0 1-594)
chain: T1 sequence with I151A
On to B15, for which the binding result in assay [2] is “no binding”.

B16: D146A TIR1 (BiFC fusion) (protein, UniProt Q570C0 1-594)
chain: T1 sequence with D146A
As to B16, the binding entry in assay [2] is given as “binds”.

B17: D170E TIR1 (BiFC fusion) (protein, UniProt Q570C0 1-594)
chain: T1 sequence with D170E
Turning to B17, the binding entry in assay [2] is on record as “binds”.

B18: G142A TIR1 (BiFC fusion) (protein, UniProt Q570C0 1-594)
chain: T1 sequence with G142A
As for B18, the binding result in assay [2] is “no binding”.

B19: D170A-TIR1 (BiFC fusion) (protein, UniProt Q570C0 1-594)
chain: T1 sequence with D170A
Consider B19, for which, in assay [2], the binding entry is “no binding”.

B20: K113A/R114A TIR1 (BiFC fusion) (protein, UniProt Q570C0 1-594)
chain: T1 sequence with K113A, R114A
In the case of B20, in assay [2], the binding entry is “binds”.

B21: C140S-TIR1 (BiFC fusion) (protein, UniProt Q570C0 1-594)
chain: T1 sequence with C140S
Consider B21, for which, in assay [2], the binding result was “no binding”.

B22: COI1, BiFC fusion (protein, UniProt O04197 1-592)
chain: MEDPDIKRCKLSCVATVDDVIEQVMTYITDPKDRDSASLVCRRWFKIDSETREHVTMALCYTATPDRLSRRFPNLRSLKLKGKPRAAMFNLIPENWGGYVTPWVTEISNNLRQLKSVHFRRMIVSDLDLDRLAKARADDLETLKLDKCSGFTTDGLLSIVTHCRKIKTLLMEESSFSEKDGKWLHELAQHNTSLEVLNFYMTEFAKISPKDLETIARNCRSLVSVKVGDFEILELVGFFKAAANLEEFCGGSLNEDIGMPEKYMNLVFPRKLCRLGLSYMGPNEMPILFPFAAQIRKLDLLYALLETEDHCTLIQKCPNLEVLETRNVIGDRGLEVLAQYCKQLKRLRIERGADEQGMEDEEGLVSQRGLIALAQGCQELEYMAVYVSDITNESLESIGTYLKNLCDFRLVLLDREERITDLPLDNGVRSLLIGCKKLRRFAFYLRQGGLTDLGLSYIGQYSPNVRWMLLGYVGESDEGLMEFSRGCPNLQKLEMRGCCFSERAIAAAVTKLPSLRYLWVQGYRASMTGQDLMQMARPYWNIELIPSRRVPEVNQQGEIREMEHPAHILAYYSLAGQRTDCPTTVRVLKEPI
With B22, in assay [6], the binding entry is reported as “binds”.

B23: COI1, yeast two-hybrid fusion (protein, UniProt O04197 1-592)
chain: B22 chain
On to B23, for which, in assay [7], the binding entry is given as “binds”.
